# Laboratory results published in the BET-seq Pho4 binding data (Le et al. 2018).
# This is one part of the list. Values were computed here from the reads of four pooled replicates and scatter widely.
# Target: T1, Pho4 (S. cerevisiae) (UniProt P07270)
# T1 sequence: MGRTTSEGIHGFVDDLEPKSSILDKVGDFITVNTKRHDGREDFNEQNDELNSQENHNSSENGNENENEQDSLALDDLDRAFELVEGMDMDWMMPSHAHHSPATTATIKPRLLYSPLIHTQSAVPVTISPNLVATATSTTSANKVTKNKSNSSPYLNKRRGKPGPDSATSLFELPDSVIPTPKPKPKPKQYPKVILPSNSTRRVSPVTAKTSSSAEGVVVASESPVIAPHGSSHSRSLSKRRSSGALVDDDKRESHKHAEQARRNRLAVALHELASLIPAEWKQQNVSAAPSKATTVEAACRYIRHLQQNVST
# Assay: relative binding free energy (BET-seq); higher = weaker binding
# Details: reference: library average
row,Sequence,relative binding free energy
1,GGGATCACGTGAATGT,0.34 kcal/mol
2,GTGGTCACGTGTACTG,0.14 kcal/mol
3,AGTAGCACGTGTTTGG,-0.07 kcal/mol
4,TTATTCACGTGCGTGG,0.22 kcal/mol
5,CTGGACACGTGGTATT,0.02 kcal/mol
6,GGTCGCACGTGGTGGA,-0.09 kcal/mol
7,AGGCTCACGTGTTATG,0.24 kcal/mol
8,GTGTTCACGTGCATGT,0.14 kcal/mol
9,GGGTTCACGTGGTATT,0.33 kcal/mol
10,GTGTTCACGTGGTCAG,0.2 kcal/mol
11,TTGGGCACGTGACTGG,-0.09 kcal/mol
12,TGATTCACGTGATCGG,0.29 kcal/mol
13,TGGCTCACGTGTGGCT,0.17 kcal/mol
14,TTAAACACGTGAAGGA,0.45 kcal/mol
15,GTCGGCACGTGGATGA,0.08 kcal/mol
16,AGTCACACGTGTCGTG,0.12 kcal/mol
17,CGCTGCACGTGGTGTG,-0.07 kcal/mol
18,TGGAACACGTGGGAAT,-0.02 kcal/mol
19,GATTGCACGTGTGATG,0.22 kcal/mol
20,GTAGGCACGTGCAAGT,0.06 kcal/mol
21,GGGGACACGTGTTAGG,-0.04 kcal/mol
22,ATTGTCACGTGGGTCT,-0.07 kcal/mol
23,CTGGGCACGTGTTGGG,-0.01 kcal/mol
24,TTGGCCACGTGGTGTA,-0.18 kcal/mol
25,GAGGACACGTGTGGTC,0.22 kcal/mol

row,Sequence,relative binding free energy
1,ATAGTCACGTGTCAGT,0.17 kcal/mol
2,ACGGTCACGTGCTGGG,0.07 kcal/mol
3,TCTGGCACGTGGGTAT,-0.24 kcal/mol
4,TTTAACACGTGAATGT,0.19 kcal/mol
5,GTTTTCACGTGTGTCC,0.3 kcal/mol
6,CGGCACACGTGGTTGG,0.04 kcal/mol
7,AGTTACACGTGGTCGA,0.1 kcal/mol
8,TAATTCACGTGAGTTT,0.34 kcal/mol
9,AATATCACGTGTGCAG,0.16 kcal/mol
10,TGGCTCACGTGTATTA,0.11 kcal/mol
11,AAAGGCACGTGTGAAG,0.05 kcal/mol
12,CGTTGCACGTGTTATT,0.07 kcal/mol
13,TGGTACACGTGCGAGG,0.02 kcal/mol
14,AGTCCCACGTGGTGGG,-0.24 kcal/mol
15,GTGCTCACGTGGCGTG,0.13 kcal/mol
16,ATTCACACGTGTTTAT,0.04 kcal/mol
17,CGGTGCACGTGGTGTC,-0.09 kcal/mol
18,TCGGTCACGTGTGAGT,0.18 kcal/mol
19,AAGTTCACGTGATGGC,0.33 kcal/mol
20,TTTTTCACGTGCGCGA,0.19 kcal/mol
21,CATGTCACGTGAAGTG,0.24 kcal/mol
22,CGGGGCACGTGGGCCG,-0.31 kcal/mol
23,TATGACACGTGTTTCT,0.08 kcal/mol
24,CCAGGCACGTGTTGGT,-0.15 kcal/mol
25,AGTTTCACGTGTGTGA,0.18 kcal/mol

row,Sequence,relative binding free energy
1,TGTGGCACGTGGCCCT,-0.14 kcal/mol
2,ATTTACACGTGCGTGG,0.02 kcal/mol
3,CATGGCACGTGGTGGC,-0.28 kcal/mol
4,GTCTGCACGTGATTTT,0.24 kcal/mol
5,AGGTCCACGTGCTGGT,-0.1 kcal/mol
6,GGAGTCACGTGTGATG,0.25 kcal/mol
7,GGGAGCACGTGGGGGA,-0.26 kcal/mol
8,AGGTGCACGTGATAGG,-0.05 kcal/mol
9,GTGCACACGTGGGAAG,-0.01 kcal/mol
10,GTGATCACGTGATGTT,0.44 kcal/mol
11,TGTGTCACGTGGTAAT,0.03 kcal/mol
12,GGGTTCACGTGGAGGC,0.28 kcal/mol
13,AACTTCACGTGGGGTG,0.05 kcal/mol
14,GTTAGCACGTGTACTT,0.07 kcal/mol
15,GTACGCACGTGTGCGG,-0.02 kcal/mol
16,GTCATCACGTGGTTGA,0.02 kcal/mol
17,TTGTGCACGTGTGGTG,0.03 kcal/mol
18,CGTAGCACGTGGGGGA,-0.25 kcal/mol
19,CTGGTCACGTGGTCGT,0.05 kcal/mol
20,TAGTACACGTGGGTAT,-0.03 kcal/mol
21,GTGTTCACGTGAGTTC,0.47 kcal/mol
22,TGGCTCACGTGGGAGC,0.15 kcal/mol
23,GATTCCACGTGGGTTT,0.06 kcal/mol
24,GGGAGCACGTGCGGGC,-0.2 kcal/mol
25,CTGTTCACGTGTTAGT,0.18 kcal/mol

row,Sequence,relative binding free energy
1,CGTCTCACGTGTGTTT,0.1 kcal/mol
2,TTGGTCACGTGTTACG,0.1 kcal/mol
3,TGACACACGTGAGGGG,0.16 kcal/mol
4,TGGATCACGTGCAGGA,0.2 kcal/mol
5,TGGGTCACGTGACTAA,0.2 kcal/mol
6,ATCTTCACGTGCGTGT,0.15 kcal/mol
7,TTTATCACGTGTTTAT,0.15 kcal/mol
8,GGGACCACGTGATGGG,0.07 kcal/mol
9,TATAACACGTGTGATG,-0.08 kcal/mol
10,TTTATCACGTGTTACG,0.05 kcal/mol
11,AATGACACGTGGGGCT,-0.21 kcal/mol
12,AGAATCACGTGTATAG,0.21 kcal/mol
13,TATGCCACGTGGGGGA,-0.25 kcal/mol
14,TGGTGCACGTGAAGTT,0.21 kcal/mol
15,AGAGTCACGTGGTGGG,0.14 kcal/mol
16,GAGGTCACGTGTTATG,0.2 kcal/mol
17,ATTCGCACGTGCTGGT,-0.13 kcal/mol
18,CTTGACACGTGTTTAT,-0.05 kcal/mol
19,GCGTTCACGTGGTTAG,0.38 kcal/mol
20,CGGGTCACGTGGGAAG,-0.03 kcal/mol
21,TAGTCCACGTGTTAGG,-0.1 kcal/mol
22,GAAGTCACGTGGGTTC,0.07 kcal/mol
23,GCAGTCACGTGGTGAG,0.1 kcal/mol
24,TTTGCCACGTGTGCGG,-0.25 kcal/mol
25,GTTTACACGTGCTGGT,0.2 kcal/mol

row,Sequence,relative binding free energy
1,GTGTACACGTGGGGTT,-0.04 kcal/mol
2,GGGTGCACGTGAGGCG,0.19 kcal/mol
3,AATTACACGTGAATTA,0.38 kcal/mol
4,GAGTGCACGTGATTGA,0.11 kcal/mol
5,GGATACACGTGTGTGA,0.13 kcal/mol
6,GGGGCCACGTGGGGCA,-0.15 kcal/mol
7,TGCGCCACGTGGGTTA,-0.16 kcal/mol
8,AGAGTCACGTGTGCTT,-0.03 kcal/mol
9,CAAGACACGTGGTTGG,0.02 kcal/mol
10,GGTATCACGTGTTTAT,0.25 kcal/mol
11,GTCCGCACGTGGGGGC,-0.18 kcal/mol
12,TACGGCACGTGTGTTA,-0.09 kcal/mol
13,CATATCACGTGGTGAG,0.05 kcal/mol
14,TATGACACGTGGCAGG,-0.04 kcal/mol
15,TGTTCCACGTGCGTTG,0 kcal/mol
16,GGTCTCACGTGGGGCG,0.14 kcal/mol
17,TATATCACGTGGGTTT,0.07 kcal/mol
18,ACGCTCACGTGGTGGT,0.1 kcal/mol
19,AGGCACACGTGATGTG,0.21 kcal/mol
20,CAAGTCACGTGCAGGG,0.26 kcal/mol
21,TTTCTCACGTGGCTTT,0.28 kcal/mol
22,TAATGCACGTGTATAA,0.02 kcal/mol
23,GTGGACACGTGCTATG,-0.02 kcal/mol
24,GGAGTCACGTGTTTTG,0.26 kcal/mol
25,TTATGCACGTGGTATG,-0.11 kcal/mol

row,Sequence,relative binding free energy
1,AAGAGCACGTGTTTAA,0 kcal/mol
2,GTGGACACGTGAGGGA,0.2 kcal/mol
3,TGTAACACGTGGTAGT,0.01 kcal/mol
4,AGTTACACGTGTTTTT,0.15 kcal/mol
5,GTTGGCACGTGGTACA,-0.16 kcal/mol
6,GAGTACACGTGGGATG,0.12 kcal/mol
7,TGGGTCACGTGGAAAT,0.28 kcal/mol
8,CATGTCACGTGTTTTT,0.12 kcal/mol
9,ACGGTCACGTGTTGGA,0.02 kcal/mol
10,TGCAGCACGTGAGGTG,0.12 kcal/mol
11,TAGGGCACGTGCTTTG,-0.3 kcal/mol
12,ATCATCACGTGAGTGT,0.29 kcal/mol
13,AGTAACACGTGGTTGG,-0.01 kcal/mol
14,TTAATCACGTGCTTTA,0.08 kcal/mol
15,TATGTCACGTGGTCTC,0.1 kcal/mol
16,TGGTTCACGTGGTTAT,0.21 kcal/mol
17,TGGAGCACGTGATATG,-0.05 kcal/mol
18,GCGGGCACGTGTAGAA,0.12 kcal/mol
19,TAAGACACGTGTTTTG,0.04 kcal/mol
20,ATAGGCACGTGCTGGT,-0.21 kcal/mol
21,GAATACACGTGTTGTG,-0.02 kcal/mol
